In PMC4559378 one finds binding data, which are given here for 2 substances.

The chains behind the UniProt entries cited, without tags or fusion partners. Where a name states a change or a piece, a line headed by the entry shows the natural chain unless it says otherwise. A line that says so, or that is headed by a name, gives the form on record, which may keep a tag or linker. Residues count along the entry.
UniProt P35637: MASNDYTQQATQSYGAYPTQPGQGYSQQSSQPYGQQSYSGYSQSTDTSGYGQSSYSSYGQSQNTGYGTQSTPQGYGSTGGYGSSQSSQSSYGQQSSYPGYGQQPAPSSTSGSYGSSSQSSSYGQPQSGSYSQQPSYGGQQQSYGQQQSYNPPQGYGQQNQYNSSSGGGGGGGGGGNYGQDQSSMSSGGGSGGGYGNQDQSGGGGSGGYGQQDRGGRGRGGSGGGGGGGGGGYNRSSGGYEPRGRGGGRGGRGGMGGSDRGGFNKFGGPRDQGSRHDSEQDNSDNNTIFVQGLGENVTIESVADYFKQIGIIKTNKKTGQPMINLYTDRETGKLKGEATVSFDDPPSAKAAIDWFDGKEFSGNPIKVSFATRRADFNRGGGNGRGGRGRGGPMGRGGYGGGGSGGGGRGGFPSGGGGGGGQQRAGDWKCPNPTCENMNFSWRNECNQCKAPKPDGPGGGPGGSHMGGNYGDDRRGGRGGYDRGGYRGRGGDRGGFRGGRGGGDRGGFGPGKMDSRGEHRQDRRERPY
GST-tagged N-terminal fragment of Wt-FUS containing 370 amino acid residues: residues 1-370 of P35637
GST-tagged N-terminal fragment of Wt-FUS containing 285 amino acid residues: residues 1-285 of P35637
GST-tagged carboxyl terminal fragment (aa371-526) of FUS: residues 371-526 of P35637
UniProt P10809, residues 27-573: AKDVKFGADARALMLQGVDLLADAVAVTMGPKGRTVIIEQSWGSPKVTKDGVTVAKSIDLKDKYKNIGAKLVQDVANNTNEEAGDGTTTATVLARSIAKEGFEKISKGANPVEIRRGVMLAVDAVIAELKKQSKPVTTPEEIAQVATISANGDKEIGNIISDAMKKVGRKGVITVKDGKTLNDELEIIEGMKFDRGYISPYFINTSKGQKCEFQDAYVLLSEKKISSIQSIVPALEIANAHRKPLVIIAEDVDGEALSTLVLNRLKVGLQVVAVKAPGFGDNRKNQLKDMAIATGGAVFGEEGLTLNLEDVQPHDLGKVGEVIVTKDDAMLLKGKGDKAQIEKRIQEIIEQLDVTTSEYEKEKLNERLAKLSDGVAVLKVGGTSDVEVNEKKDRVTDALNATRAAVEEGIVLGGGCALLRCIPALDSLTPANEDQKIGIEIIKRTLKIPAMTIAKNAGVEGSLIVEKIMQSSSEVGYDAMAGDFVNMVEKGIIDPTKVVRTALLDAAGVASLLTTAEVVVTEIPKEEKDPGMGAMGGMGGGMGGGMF

For assay [1], the target named is Wt-FUS tagged with GFP (human) (UniProt P35637). Description: co-IP; lysates of transfected HEK293 (HEK293T) cells 48 h post-transfection; immunoprecipitation with anti-GFP and protein A-agarose at 4°C; Western blot with anti-HSP60. (A western blot detects proteins with antibodies after separation by electrophoresis.)
Assay [2] deals with P525L-mutant FUS tagged with GFP (human) (UniProt P35637). The assay is described as above.
Assay [3] has as its target P525L-mutant FUS as a 6XHis-Myc tagged protein (human) (UniProt P35637). Kind of assay: co-IP; cytosolic fraction of HEK293 cells expressing 6xMyc tagged FUS; immunoprecipitation with an anti-Myc monoclonal antibody; Western blot with anti-HSP60.
Assay [4] concerns the target Wt-FUS tagged with 6xMyc tag (human) (UniProt P35637). The assay is described as above.
Assay [5] addresses P525L-mutant FUS as a 6XHis-Myc tagged protein (human) (UniProt P35637). Description: co-IP; mitochondrial fraction of HEK293 cells expressing 6xMyc tagged FUS; immunoprecipitation with an anti-Myc monoclonal antibody; Western blot with anti-HSP60.
In assay [6] the target is Wt-FUS tagged with 6xMyc tag (human) (UniProt P35637). The assay is described as above.
The target of assay [7] is P525L-mutant FUS as a 6XHis-Myc tagged protein (human) (UniProt P35637). Kind of assay: cross-linking; live stable cells, 16 h tetracycline induction, 1% formaldehyde (PFA) for 10 min; FUS purified under denaturing conditions (6 M guanidine HCl) on Ni-NTA, then anti-myc immunoprecipitation and Ni-NTA again; Western blot with anti-HSP60, or anti-FUS after further anti-HSP60 immunoaffinity ….

Assay [8] concerns the target GST-tagged full-length Wt-FUS (human) (UniProt P35637). Description: pull-down; purified GST-FUS proteins incubated with purified HSP60-His in TNE buffer (10 mM Tris pH 8.0, 150 mM NaCl, 1 mM EDTA, 1% NP-40) on ice for 1 hour, then glutathione 4B Sepharose beads at 4°C for 3 hours; Western blot with anti-HSP60; also done after RNaseA treatment (50 ug/ml, 30 min, 37°C); both purified.

The target in assay [9] is GST-tagged full-length P525L-mutant FUS (human) (UniProt P35637). Described as above.
For assay [10], the target named is GST-tagged N-terminal fragment of Wt-FUS containing 370 amino acid residues (human) (UniProt P35637). The assay is described as above.
Assay [11] concerns the target GST-tagged carboxyl terminal fragment (aa371-526) of FUS (human) (UniProt P35637). The description is as above.
In assay [12] the target is GST-tagged N-terminal fragment of Wt-FUS containing 285 amino acid residues (human) (UniProt P35637). The assay is described as above.

These are yes or no findings as the source states them, for the method shown. For part of these data: Binding seen in cells or lysates may run through a third protein. Some entries that bind do so weakly or less than the wild type.

With “HSP60, endogenous in HEK293 cells (from UniProt P10809 27-573)”, the binding result in [1], in assay [2], in [3], in [4], in assay [5] and in assay [6] was “binds” in each case. Besides, the binding result in [7] was “binds”.
In the case of “His-tagged HSP60 protein (from UniProt P10809 27-573)”, the binding entry in [8] was “binds”; in assay [9], “binds”; in assay [10] it was “no binding”; in [11], “binds”; in assay [12], “no binding”.
